Assay results as given in PubChem BioAssay AID757 (NMMLSC, 2007).
Out of some 190,000 compounds screened, about 520 (0.27%) were called active. This list was built around the results that the source calls inconclusive (neither active nor inactive); the mix of calls is not that of the screen.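 The calls were made as follows: active = GTP binding activity at least 20 points away from the 100% control level, either lower or higher; inconclusive = compound flagged as likely green fluorescent, judged across all proteins; inactive = the rest.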

target: Ras-related C3 botulinum toxin substrate 1 (Homo sapiens) (UniProt P63000); test: wildtype Rac1 GTP binding modulators, primary screen, biochemical, GST-Rac1 beads, flow cytometry, multiplex (AID 757); conditions: fluorescent GTP binding, at 10 µM, actives lie on both sides, 0 = cold GTP competed, 100 = untreated

Q: With `CCCOC(=O)c1c(NC(=O)CCC(=O)O)sc2c1CCCCC2` as the compound, how does the GTP binding activity (% of control) read?
A: The GTP binding activity (% of control) was inactive: 92%.

Q: How did the GTP binding activity (% of control) turn out when `CN1C(=O)/C(=C\c2cc(Br)cs2)c2ccccc21` was run?
A: Its GTP binding activity (% of control) is inconclusive: 89%.

Q: How did the GTP binding activity (% of control) turn out when `O=C(NCc1ccccc1)C1=C[C@@H](c2ccc(C(F)(F)F)cc2)C[C@@H](OCc2ccc(CO)cc2)O1` was run?
A: The GTP binding activity (% of control) was inconclusive: 96%.

Q: How did the GTP binding activity (% of control) turn out when `O=C(N/C(=C/c1ccco1)C(=O)N1CCOCC1)c1cccs1` was run?
A: Its GTP binding activity (% of control) is inconclusive: 94%.

Q: `CCCC(CCC)C(=O)Oc1cc(C)[nH]c(=O)c1[N+](=O)[O-]` was tested. Which GTP binding activity (% of control) did it give?
A: Its GTP binding activity (% of control) is inactive: 100%.

Q: Which GTP binding activity (% of control) does the source give for `Cc1ccc(NC(=O)CN2C(=O)C3C4C=CC(C4)C3C2=O)cc1S(=O)(=O)N(C)C` (stereo unspecified) here?
A: Its GTP binding activity (% of control) is inconclusive: 103%.

Q: With `O=S(=O)(Nc1cc(Sc2ncn[nH]2)c(O)c2ccccc12)c1ccccc1` as the compound, how does the GTP binding activity (% of control) read?
A: The GTP binding activity (% of control) was active: 78%.

Q: `O=C(N/N=C/c1ccc(OCc2ccccc2)cc1)c1cc[n+](Cc2ccccc2)cc1` was tested. Which GTP binding activity (% of control) did it give?
A: The GTP binding activity (% of control) was inconclusive: 106%.

Q: With `Cc1ccc(C)c(N2CCN(C(=O)c3ccc4nc(-c5ccco5)c(-c5ccco5)nc4c3)CC2)c1` as the compound, how does the GTP binding activity (% of control) read?
A: The GTP binding activity (% of control) was inconclusive: 89%.

Q: For `CCCN(CCC)CCNS(=O)(=O)c1ccc2c(c1)oc(=O)n2C`, which GTP binding activity (% of control) is on record?
A: The GTP binding activity (% of control) was inconclusive: 108%.

Q: Which GTP binding activity (% of control) does the source give for `O=C(CN1CCC(n2nnc3cc(C(F)(F)F)ccc32)CC1)NNC(=O)c1ccco1` here?
A: Its GTP binding activity (% of control) is inactive: 99%.

Q: How did the GTP binding activity (% of control) turn out when `N#CC1=C(N)N(c2ncn[nH]2)C2=C(C(=O)CCC2)C1c1ccccc1` (stereo unspecified) was run?
A: The GTP binding activity (% of control) was inconclusive: 97%.

Q: For `CCOc1ccc(CCNc2ccc3nnc(-c4ccccc4)n3n2)cc1OCC`, which GTP binding activity (% of control) is on record?
A: The GTP binding activity (% of control) was active: 76%.

Q: `COc1cccc(C2SCC(=O)N2c2ccc(Br)cc2)c1OC` (stereo unspecified) was tested. Which GTP binding activity (% of control) did it give?
A: Its GTP binding activity (% of control) is inactive: 101%.

Q: `O=C(CSc1nc2cc(Cl)ccc2s1)c1ccco1` was tested. Which GTP binding activity (% of control) did it give?
A: The GTP binding activity (% of control) was inconclusive: 96%.

Q: With `Cc1cccc(-n2nc(CC#N)c(C#N)c2N)c1` as the compound, how does the GTP binding activity (% of control) read?
A: Its GTP binding activity (% of control) is inactive: 82%.

Q: Which GTP binding activity (% of control) does the source give for `N#Cc1c(Nc2ccccc2)c(/C=N/N=C/c2ccccc2)c[nH]c1=O` here?
A: Its GTP binding activity (% of control) is active: 75%.

Q: For `Cc1ccnc(N2C(=O)OC(C)(C)C2(C)O)c1` (stereo unspecified), which GTP binding activity (% of control) is on record?
A: Its GTP binding activity (% of control) is inconclusive: 107%.

Q: For `CC1=NNC(=O)C1CCC(=O)N/N=C(/C)c1ccc([N+](=O)[O-])cc1` (stereo unspecified), which GTP binding activity (% of control) is on record?
A: The GTP binding activity (% of control) was inconclusive: 103%.

Q: For `O=C(O)COc1ccc(Br)cc1/C=C1/SC(=O)N(CC(=O)N2CCCC2)C1=O`, which GTP binding activity (% of control) is on record?
A: The GTP binding activity (% of control) was inconclusive: 100%.

Q: For `O=C1NC(=S)N/C1=C/c1cc([N+](=O)[O-])ccc1O`, which GTP binding activity (% of control) is on record?
A: Its GTP binding activity (% of control) is inconclusive: 80%.

Q: For `COC(=O)c1ccc2nc(Nc3nc4c(F)cc(F)cc4s3)sc2c1`, which GTP binding activity (% of control) is on record?
A: Its GTP binding activity (% of control) is inactive: 81%.

Q: Which GTP binding activity (% of control) does the source give for `O=C(COc1ccccc1[N+](=O)[O-])Nc1cc(Cl)ccc1C(=O)O` here?
A: Its GTP binding activity (% of control) is inactive: 87%.

Q: How did the GTP binding activity (% of control) turn out when `Cc1ccn2c(NCc3ccc4c(c3)OCO4)c(-c3ccc(O)cc3)nc2c1` was run?
A: The GTP binding activity (% of control) was active: 135% [activator].

Q: How did the GTP binding activity (% of control) turn out when `COc1cc2[nH]c(=S)nc(Nc3ccc(NC(C)=O)cc3)c2cc1OC` was run?
A: Its GTP binding activity (% of control) is inconclusive: 45%.

Q: `O=c1oc2ccc3ccccc3c2cc1-c1nnc(-c2ccccc2)o1` was tested. Which GTP binding activity (% of control) did it give?
A: The GTP binding activity (% of control) was inconclusive: 94%.

Q: Which GTP binding activity (% of control) does the source give for `Nc1ccc(-c2cn3cccnc3n2)cc1` here?
A: The GTP binding activity (% of control) was active: 72%.

Q: For `CC(C)N(C(=O)CSc1nnc(Cc2csc(Nc3ccccc3)n2)o1)C(C)C`, which GTP binding activity (% of control) is on record?
A: Its GTP binding activity (% of control) is inactive: 98%.

Q: With `CC(Nc1ccc2c(c1)OCCO2)C(=O)N1c2ccccc2CC1C` (stereo unspecified) as the compound, how does the GTP binding activity (% of control) read?
A: Its GTP binding activity (% of control) is inactive: 100%.

Q: With `Cc1c(Cl)cn2c(=O)cc(CN(C)Cc3nc4ccccc4c(=O)[nH]3)nc2c1Cl` as the compound, how does the GTP binding activity (% of control) read?
A: The GTP binding activity (% of control) was inactive: 106%.

Q: How did the GTP binding activity (% of control) turn out when `O=C(NCCCN1CCCCCC1)c1ccc(N2CCCC2=O)cc1` was run?
A: Its GTP binding activity (% of control) is inconclusive: 109%.

Q: How did the GTP binding activity (% of control) turn out when `N#C/C(=N\Nc1ccccc1[N+](=O)[O-])C(=N)N1CCCCC1` was run?
A: The GTP binding activity (% of control) was inconclusive: 97%.

Q: Which GTP binding activity (% of control) does the source give for `Cc1cc(C)n(C(=O)CNC(=O)c2ccc3c(c2)OCCO3)n1` here?
A: The GTP binding activity (% of control) was active: 29%.

Q: With `Cc1nc2ccc(NC(=O)COc3ccccc3)cc2s1` as the compound, how does the GTP binding activity (% of control) read?
A: The GTP binding activity (% of control) was inconclusive: 247%.

Q: For `CCCCCOC(=O)c1ccccc1C(=O)O`, which GTP binding activity (% of control) is on record?
A: The GTP binding activity (% of control) was inconclusive: 143%.

Q: `CC1=C/C(=N\Nc2ccccc2[N+](=O)[O-])CC(C)(C)C1` was tested. Which GTP binding activity (% of control) did it give?
A: The GTP binding activity (% of control) was inactive: 100%.

Q: Which GTP binding activity (% of control) does the source give for `CC(=O)Nc1ccc(S(=O)(=O)Nc2nc3ccccc3nc2Nc2ccccc2)cc1` here?
A: The GTP binding activity (% of control) was inconclusive: 96%.

Q: With `CC(C)CNS(=O)(=O)c1ccc(CCC(=O)O)cc1` as the compound, how does the GTP binding activity (% of control) read?
A: The GTP binding activity (% of control) was inconclusive: 91%.

Q: `CCN(CC)c1ccc(CNCc2cccs2)cc1` was tested. Which GTP binding activity (% of control) did it give?
A: The GTP binding activity (% of control) was inconclusive: 93%.

Q: Which GTP binding activity (% of control) does the source give for `Cc1cc(N2CCOCC2)n2cc(-c3ccccc3)nc2n1` here?
A: Its GTP binding activity (% of control) is inconclusive: 94%.

Q: How did the GTP binding activity (% of control) turn out when `CCN(CC)S(=O)(=O)c1ccc(C(=O)Oc2cc(C)[nH]c(=O)c2[N+](=O)[O-])cc1` was run?
A: Its GTP binding activity (% of control) is inactive: 96%.

Q: With `Cc1cc(CN(C)Cc2c(C(=O)N3CCCCCCC3)nc3ccc(Cl)cn23)n[nH]1` as the compound, how does the GTP binding activity (% of control) read?
A: Its GTP binding activity (% of control) is inactive: 99%.

Q: `CCOc1ccc2c(c1)c(N=Nc1cccc(C(=O)O)c1)c(O)n2C` was tested. Which GTP binding activity (% of control) did it give?
A: Its GTP binding activity (% of control) is inactive: 93%.

Q: `C=CCC1(NCc2ccco2)CCN(CC)CC1` was tested. Which GTP binding activity (% of control) did it give?
A: The GTP binding activity (% of control) was inactive: 103%.

Q: Which GTP binding activity (% of control) does the source give for `S=C(NC1CCCCC1)N1CCN(Cc2ccccc2Cl)CC1` here?
A: Its GTP binding activity (% of control) is inactive: 101%.

Q: With `C=CCn1c(CNc2ccc(C)cc2)nnc1SCC(=O)N/N=C/c1ccc(O)cc1O` as the compound, how does the GTP binding activity (% of control) read?
A: Its GTP binding activity (% of control) is inconclusive: 89%.
